The record followed here is US11178870B2 (priority 2017, dated 2021).

Assay [1] deals with Magnaporthe grisea. Format: in vivo. The settings on record: Table 7, Test A.
Assay [2] relates to Colletotrichum orbiculare. The settings on record: 250 ppm sprayed (2.5 ml/pot) before inoculation; assessed 6 to 10 days after inoculation.
The test system of assay [3] is Phytophthora infestans. Format: in vivo. The settings on record: Table 7, Test F.

SMILES strings stand for the structures.

For the compound `CCN1C(=O)CCC(c2ccsc2Cl)=C1c1c(F)cccc1F` [Compound 295], the “control value, Test A (blast on rice)” value in assay [1] was “L (L shows the control value of 50% or less)”. Besides, the “control value, Test H (anthracnose on cucumber)” value (“control value, Test H” below) in assay [2] is “L (L shows the control value of 50% or less)”. In addition, in assay [3], the “control value, Test F (late blight on tomato)” value (from here on “control value, Test F”) is given as “L (L shows the control value of 50% or less)”.

As for `Cc1cnn(-c2ccc(=O)n(CC(F)F)c2-c2ccccc2F)c1` [Compound 305], the “control value, Test A (blast on rice)” value in assay [1] was “L (L shows the control value of 50% or less)”. For the same compound, the “control value, Test H” value in assay [2] is recorded as “L (L shows the control value of 50% or less)”. For the same compound, in assay [3], the “control value, Test F” value is recorded as “L (L shows the control value of 50% or less)”.

Consider `CCn1c(-c2ccc(F)cc2Cl)c(-n2ncc(C)c2Cl)cc(Br)c1=O` [Compound 337], for which the “control value, Test A (blast on rice)” value in assay [1] is “H (H shows the control value more than 50%)”. Also, the “control value, Test H” value in assay [2] is on record as “H (H shows the control value more than 50%)”. Besides, the “control value, Test F” value in assay [3] is “H (H shows the control value more than 50%)”.

As to `Cc1cnn(-c2cc(Br)c(=O)n(CC(F)F)c2-c2c(F)cccc2F)c1Cl` [Compound 193], in assay [1], the “control value, Test A (blast on rice)” value was “H (H shows the control value more than 50%)”. For the same compound, in assay [2], the “control value, Test H” value is listed as “H (H shows the control value more than 50%)”. The “control value, Test F” value in assay [3] was “L (L shows the control value of 50% or less)”.

`CCn1c(-c2ccccc2Cl)c(-n2cnc(Cl)c2Cl)cc(Cl)c1=O` [Compound 209]: the “control value, Test A (blast on rice)” value in assay [1] is on record as “H (H shows the control value more than 50%)”. For the same compound, in assay [2], the “control value, Test H” value is on record as “H (H shows the control value more than 50%)”. The “control value, Test F” value in assay [3] is listed as “L (L shows the control value of 50% or less)”.

`CCn1c(-c2ccc(F)cc2Cl)c(-n2cc(C)cn2)ccc1=O` [Compound 334]: in assay [1], the “control value, Test A (blast on rice)” value was “H (H shows the control value more than 50%)”. In addition, the “control value, Test H” value in assay [2] is given as “H (H shows the control value more than 50%)”. Moreover, in assay [3], the “control value, Test F” value was “L (L shows the control value of 50% or less)”.

In the case of `CCn1c(-c2ccccc2OC)c(-n2ncc(C)c2Cl)cc(Cl)c1=O` [Compound 248], in assay [1], the “control value, Test A (blast on rice)” value was “H (H shows the control value more than 50%)”. Moreover, the “control value, Test H” value in assay [2] is recorded as “H (H shows the control value more than 50%)”. The “control value, Test F” value in assay [3] is recorded as “L (L shows the control value of 50% or less)”.

Consider `O=c1ccc(-n2cc(Cl)cn2)c(-c2ccc(F)cc2Cl)n1CC(F)F` [Compound 233], for which the “control value, Test A (blast on rice)” value in assay [1] was “H (H shows the control value more than 50%)”. In addition, the “control value, Test H” value in assay [2] is “L (L shows the control value of 50% or less)”. Also, in assay [3], the “control value, Test F” value is “L (L shows the control value of 50% or less)”.

In the case of `CCn1c(-c2ccccc2Br)c(-n2cc(C)cn2)cc(Br)c1=O` [Compound 269], in assay [1], the “control value, Test A (blast on rice)” value is “H (H shows the control value more than 50%)”. In addition, the “control value, Test H” value in assay [2] was “L (L shows the control value of 50% or less)”. Besides, the “control value, Test F” value in assay [3] was “L (L shows the control value of 50% or less)”.

Take `CCn1c(-c2c(F)cc(OC)cc2F)c(-n2cc(F)cn2)ccc1=O` [Compound 308]: the “control value, Test A (blast on rice)” value in assay [1] is given as “H (H shows the control value more than 50%)”. The “control value, Test H” value in assay [2] is reported as “H (H shows the control value more than 50%)”. Also, the “control value, Test F” value in assay [3] is listed as “L (L shows the control value of 50% or less)”.

As to `CCn1c(-c2ccc(OC)cc2F)c(-n2cc(F)cn2)cc(Cl)c1=O` [Compound 301], the “control value, Test A (blast on rice)” value in assay [1] is on record as “H (H shows the control value more than 50%)”. In assay [2], the “control value, Test H” value was “H (H shows the control value more than 50%)”. Also, in assay [3], the “control value, Test F” value was “L (L shows the control value of 50% or less)”.

As for `CCn1c(-c2ccccc2F)c(-n2cc(Cl)cn2)cc(Cl)c1=O` [Compound 220], the “control value, Test A (blast on rice)” value in assay [1] was “H (H shows the control value more than 50%)”. Besides, the “control value, Test H” value in assay [2] is recorded as “H (H shows the control value more than 50%)”. Moreover, in assay [3], the “control value, Test F” value is on record as “L (L shows the control value of 50% or less)”.

Regarding `Cc1cnn(-c2ccc(=O)n(CC(F)F)c2-c2ccc(F)cc2Br)c1` [Compound 338], the “control value, Test A (blast on rice)” value in assay [1] is listed as “H (H shows the control value more than 50%)”.
